Measured values taken from paper PMC10009787 (ACS Medicinal Chemistry Letters, 2023).

Assays:
CSK = CSK (Homo sapiens, UniProt P41240); test: SelectScreen kinase profiling; assay type: biochemical; conditions: average of duplicate
CSNK1E (CK1 epsilon) = CSNK1E (CK1 epsilon) (Homo sapiens, UniProt P49674); test: SelectScreen kinase profiling; assay type: biochemical; conditions: average of duplicate
RET M918T = biological target: T1, RET M918T (Homo sapiens, UniProt P07949, M918T); test: SelectScreen kinase profiling; assay type: biochemical; conditions: average of duplicate
T1 sequence (P07949 658-1114 M918T limits assumed): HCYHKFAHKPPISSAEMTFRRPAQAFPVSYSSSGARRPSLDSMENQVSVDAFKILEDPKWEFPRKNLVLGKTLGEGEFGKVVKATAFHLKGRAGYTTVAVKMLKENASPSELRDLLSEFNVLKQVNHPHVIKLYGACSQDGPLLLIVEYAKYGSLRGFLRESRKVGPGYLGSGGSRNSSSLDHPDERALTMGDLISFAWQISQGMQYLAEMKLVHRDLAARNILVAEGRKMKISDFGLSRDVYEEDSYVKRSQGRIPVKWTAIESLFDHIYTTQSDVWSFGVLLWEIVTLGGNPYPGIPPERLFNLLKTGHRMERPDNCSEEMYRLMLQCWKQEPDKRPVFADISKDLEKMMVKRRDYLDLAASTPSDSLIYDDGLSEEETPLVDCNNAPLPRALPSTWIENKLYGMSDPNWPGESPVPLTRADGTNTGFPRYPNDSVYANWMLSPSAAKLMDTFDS

TNK2 (ACK) = TNK2 (ACK) (Homo sapiens, UniProt Q07912); test: SelectScreen kinase profiling; assay type: biochemical; conditions: average of duplicate
ZAK = ZAK (Homo sapiens, UniProt Q9NYL2); test: SelectScreen kinase profiling; assay type: biochemical; conditions: average of duplicate
BTK = BTK (Homo sapiens, UniProt Q06187); test: SelectScreen kinase profiling / Z′-Lyte kinase assay
Sequence of UniProt Q06187 (Q06187 whole entry): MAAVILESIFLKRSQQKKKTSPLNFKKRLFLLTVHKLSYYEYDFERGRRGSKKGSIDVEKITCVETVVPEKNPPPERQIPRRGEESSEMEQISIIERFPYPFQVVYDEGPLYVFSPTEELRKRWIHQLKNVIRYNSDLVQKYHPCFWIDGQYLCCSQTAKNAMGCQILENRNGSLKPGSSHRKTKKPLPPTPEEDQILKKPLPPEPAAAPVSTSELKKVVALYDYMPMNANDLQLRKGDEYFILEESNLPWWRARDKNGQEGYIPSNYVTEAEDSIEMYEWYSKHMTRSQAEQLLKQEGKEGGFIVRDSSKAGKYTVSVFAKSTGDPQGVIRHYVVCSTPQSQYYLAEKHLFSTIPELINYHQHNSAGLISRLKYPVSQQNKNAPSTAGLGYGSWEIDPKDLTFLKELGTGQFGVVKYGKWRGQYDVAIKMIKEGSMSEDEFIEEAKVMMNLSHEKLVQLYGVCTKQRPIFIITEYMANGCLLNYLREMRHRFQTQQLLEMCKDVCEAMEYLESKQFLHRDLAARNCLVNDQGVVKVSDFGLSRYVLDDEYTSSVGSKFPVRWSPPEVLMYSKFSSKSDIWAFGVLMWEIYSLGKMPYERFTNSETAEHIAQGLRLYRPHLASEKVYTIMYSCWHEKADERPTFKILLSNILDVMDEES

Sequence of UniProt P41240 (P41240 whole entry): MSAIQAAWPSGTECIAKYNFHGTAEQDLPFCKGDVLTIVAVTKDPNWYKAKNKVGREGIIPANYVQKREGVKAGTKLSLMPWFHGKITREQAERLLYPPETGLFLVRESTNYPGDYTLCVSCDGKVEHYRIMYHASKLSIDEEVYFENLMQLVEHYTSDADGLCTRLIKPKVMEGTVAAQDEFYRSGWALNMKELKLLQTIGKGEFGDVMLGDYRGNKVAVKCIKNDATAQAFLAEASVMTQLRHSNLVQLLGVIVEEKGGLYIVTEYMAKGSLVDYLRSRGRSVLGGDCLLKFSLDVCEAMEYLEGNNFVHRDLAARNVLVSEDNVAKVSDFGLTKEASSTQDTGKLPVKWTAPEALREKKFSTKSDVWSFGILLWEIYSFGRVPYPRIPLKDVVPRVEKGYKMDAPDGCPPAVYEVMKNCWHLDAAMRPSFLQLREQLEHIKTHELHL
Sequence of UniProt Q9NYL2 (Q9NYL2 whole entry): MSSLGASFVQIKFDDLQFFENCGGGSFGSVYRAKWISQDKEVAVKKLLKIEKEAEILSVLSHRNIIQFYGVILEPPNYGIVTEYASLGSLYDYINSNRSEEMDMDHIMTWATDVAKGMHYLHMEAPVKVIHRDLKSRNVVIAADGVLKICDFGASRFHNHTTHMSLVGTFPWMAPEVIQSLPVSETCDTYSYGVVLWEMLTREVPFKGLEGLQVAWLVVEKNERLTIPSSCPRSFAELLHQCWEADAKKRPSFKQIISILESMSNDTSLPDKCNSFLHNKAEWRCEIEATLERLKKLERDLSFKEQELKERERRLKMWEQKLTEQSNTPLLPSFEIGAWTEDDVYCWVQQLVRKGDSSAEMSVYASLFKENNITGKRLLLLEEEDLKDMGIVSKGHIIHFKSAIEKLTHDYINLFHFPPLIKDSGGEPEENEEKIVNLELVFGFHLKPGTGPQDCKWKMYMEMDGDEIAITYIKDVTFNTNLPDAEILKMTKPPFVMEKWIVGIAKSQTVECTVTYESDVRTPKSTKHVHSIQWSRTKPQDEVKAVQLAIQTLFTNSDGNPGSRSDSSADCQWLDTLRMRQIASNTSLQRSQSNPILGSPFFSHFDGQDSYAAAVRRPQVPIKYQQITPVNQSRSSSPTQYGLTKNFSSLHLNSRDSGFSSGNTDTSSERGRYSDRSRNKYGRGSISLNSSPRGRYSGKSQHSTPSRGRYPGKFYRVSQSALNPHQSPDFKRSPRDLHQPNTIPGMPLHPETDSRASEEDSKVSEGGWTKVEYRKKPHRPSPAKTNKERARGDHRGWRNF
Sequence of UniProt Q07912 (Q07912 whole entry): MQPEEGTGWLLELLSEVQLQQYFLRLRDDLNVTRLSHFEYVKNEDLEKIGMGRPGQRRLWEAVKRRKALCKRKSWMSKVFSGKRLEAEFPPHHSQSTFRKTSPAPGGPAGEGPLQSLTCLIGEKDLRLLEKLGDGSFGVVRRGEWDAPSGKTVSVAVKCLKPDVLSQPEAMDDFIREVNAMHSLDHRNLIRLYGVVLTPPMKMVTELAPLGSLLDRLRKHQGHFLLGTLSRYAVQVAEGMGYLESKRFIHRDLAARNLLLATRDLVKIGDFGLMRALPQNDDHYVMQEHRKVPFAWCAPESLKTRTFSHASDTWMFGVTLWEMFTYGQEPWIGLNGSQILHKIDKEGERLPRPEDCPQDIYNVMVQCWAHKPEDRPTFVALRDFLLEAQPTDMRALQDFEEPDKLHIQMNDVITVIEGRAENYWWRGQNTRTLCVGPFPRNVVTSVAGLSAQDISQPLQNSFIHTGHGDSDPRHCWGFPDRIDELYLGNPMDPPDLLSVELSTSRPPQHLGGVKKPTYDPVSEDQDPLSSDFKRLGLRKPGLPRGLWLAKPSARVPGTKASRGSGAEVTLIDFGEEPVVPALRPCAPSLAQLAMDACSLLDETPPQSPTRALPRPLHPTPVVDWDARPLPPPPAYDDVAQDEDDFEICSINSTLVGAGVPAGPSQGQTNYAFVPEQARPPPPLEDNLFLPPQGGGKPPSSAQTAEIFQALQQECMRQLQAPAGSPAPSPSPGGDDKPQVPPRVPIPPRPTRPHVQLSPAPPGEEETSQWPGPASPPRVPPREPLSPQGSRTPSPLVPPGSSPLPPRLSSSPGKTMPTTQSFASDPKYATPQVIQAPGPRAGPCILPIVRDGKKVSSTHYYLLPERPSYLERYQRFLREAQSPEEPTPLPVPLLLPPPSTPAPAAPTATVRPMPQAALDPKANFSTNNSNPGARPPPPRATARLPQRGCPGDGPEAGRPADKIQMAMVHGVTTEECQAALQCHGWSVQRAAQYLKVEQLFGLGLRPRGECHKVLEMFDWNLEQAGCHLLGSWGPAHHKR
Sequence of UniProt P49674 (P49674 whole entry): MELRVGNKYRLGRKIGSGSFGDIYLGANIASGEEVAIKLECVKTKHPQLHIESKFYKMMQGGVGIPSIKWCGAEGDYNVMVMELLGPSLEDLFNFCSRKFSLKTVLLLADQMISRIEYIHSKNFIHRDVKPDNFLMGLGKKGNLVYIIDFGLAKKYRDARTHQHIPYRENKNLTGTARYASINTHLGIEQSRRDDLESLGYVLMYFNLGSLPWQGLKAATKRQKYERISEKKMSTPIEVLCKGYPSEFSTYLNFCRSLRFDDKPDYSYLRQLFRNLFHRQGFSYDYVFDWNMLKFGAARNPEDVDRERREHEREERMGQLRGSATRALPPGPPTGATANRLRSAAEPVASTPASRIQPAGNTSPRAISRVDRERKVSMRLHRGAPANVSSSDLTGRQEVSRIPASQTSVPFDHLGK

C=CC(=O)N1CCC[C@@H](n2nc(-c3ccc(Oc4ccccc4)cc3C)c3c(N)ncnc32)C1 [Compound 2, (R)-1-(3-(4-amino-3-(2-methyl-4-phenoxyphenyl)-1H-pyrazolo[3,4-d]pyrimidin-1-yl)piperidin-1-yl)prop-2-en-1-one]
inhibition at 1 µM (CSK): 81% | inhibition at 1 µM (CSNK1E (CK1 epsilon)): 35% | inhibition at 1 µM (RET M918T): 47% | inhibition at 1 µM (TNK2 (ACK)): 60% | inhibition at 1 µM (ZAK): 2% | inhibition at 1 µM (BTK): 110%
